# Reference: PubChem BioAssay AID1347120 (National Center for Advancing Translational Sciences (NCATS), 2019)
# In all, about 390,000 compounds went through this assay and about 930 (0.24%) were called active. Inconclusive results, whose numbers are uncertain, are shown with a selection of clear calls. The call rests on the fitted dose curve; in most records, active means well fitted activation curve with a large enough effect; inconclusive means small, poorly fitted or top-dose-only effect; inactive means no such curve, though single readings can be large or run the other way. Potencies beside an inconclusive call are fits to weak or partial responses and may not hold up.
# Test: qHTS for Suppressors of FUS Proteinopathy: Primary screen using FUS-linked yeast assay; further: nearly all actives have a fitted effect of over 55% in size;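 on growth rescue (activation): plate controls were DMSO vehicle for no effect and reference control for full effect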
# Conditions: S. cerevisiae FUS-expressing, OD600, 24 h; Potency: growth rescue; growth rescue (activation): at 76.6 µM (top of the series)
# How it was run: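 Yeast FUS proteinopathy model; galactose-induced FUS (2%), starting OD 0.005. Cpds in dilution series, 24hr, 30C, 99% humidity. Abs 600 nm growth. Pos ctrl CP55940 (top 92uM final); neg ctrl DMSO.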
# Potency means the concentration at half of the fitted maximal effect; tags describe the fitted curve by direction and shape.
SMILES,Potency,growth rescue (activation)
Cc1cccn2c(=O)c3cc(C#N)c(=NC(=O)c4ccccc4)n(Cc4ccco4)c3nc12,"inconclusive: 31.6 µM [activator, single point]",
O=C(Nc1cc(Cl)ccc1F)C1CCCN1S(=O)(=O)c1cccc2cccnc12 (configuration not stated),,inactive: 5.15%
COc1cc(C#Cc2c(-c3cncn3C)n(C)c3ccc(-c4cc(OC)c(OC)c(OC)c4)cc23)cc(OC)c1,"inconclusive: 14.1 µM [activator, partial curve, poor fit]",
CC(C)(C)c1ccc(S(=O)(=O)Nc2ccc(C(O)(C(F)(F)F)C(F)(F)F)cc2)cc1,"inconclusive: 35.5 µM [activator, single point]",
Cc1ccc(NS(=O)(=O)c2ccc3c4c(cccc24)C(=O)N3)c(C)c1,"inconclusive: 12.6 µM [activator, partial curve, poor fit]",
CCN1CCCC1CN(Cc1cc2cc(C)ccc2[nH]c1=O)C(=O)Nc1ccccc1OC (configuration not stated),active: 22.4 µM,
CC(OC(=O)c1nn(C)c(=O)c2ccccc12)C(=O)NCc1ccc2c(c1)OCO2 (configuration not stated),"inconclusive: 50.1 µM [activator, single point]",
CC(C)(C)OC(=O)NCCCC[C@H](NC(=O)c1nc[nH]c1C(=O)NC1CCN(C(=O)OC(C)(C)C)CC1)C(=O)OC(C)(C)C,active: 14.1 µM,
C=CCN1[C@H](C)COc2cc(F)ccc2S1(=O)=O,,inactive: -21.3%
CC(C)(C)NC(=O)C(c1ccc(C#N)cc1)n1c(=O)c(-c2ccccc2)nc2ccccc21 (configuration not stated),"inconclusive: 12.6 µM [activator, partial curve]",
CSCCC(NS(=O)(=O)c1ccc2c(c1)oc(=O)n2C)C(=O)N1CCN(c2cc(Cl)ccc2C)CC1 (configuration not stated),"inconclusive: 31.6 µM [activator, partial curve, poor fit]",
CCOc1ccc(S(=O)(=O)N2CCN(C(=O)c3cc(C4CC4)nn3-c3ccccc3)CC2)cc1,"inconclusive: 31.6 µM [activator, single point]",
CC1(C(=O)Nc2ccc(Cl)c(Cl)c2)CCN1C(=O)CCC1CCCC1 (configuration not stated),"inconclusive: 35.5 µM [activator, single point]",
O=C(Nc1cccc2c(=O)[nH][nH]c(=O)c12)c1ccc([N+](=O)[O-])cc1,"inconclusive: 7.94 µM [activator, partial curve]",
Cc1ccc(-c2nc3sccn3c2Nc2ccccc2C)cc1,"inconclusive: 31.6 µM [activator, single point]",
COC(=O)[C@]12CCCCC=C1N(Cc1cccc3ccccc13)C(=O)[C@H](CC(=O)NCCc1ccccc1OC)C2,"inconclusive: 35.5 µM [activator, single point]",
O=C(OCC(=O)C12CC3CC(CC(C3)C1)C2)c1ccc(CO)cc1,,inactive: -20.4%
COC(=O)[C@@]1(Cc2ccc(F)cc2)[C@H]2c3cc(C(=O)N4CCCC4)n(Cc4ccc(S(C)(=O)=O)cc4)c3C[C@H]2CN1C(=O)c1ccccc1,"inconclusive: 15.8 µM [activator, partial curve]",
COc1ccccc1C1C2=C(N=c3s/c(=C/c4cccc(OCC(=O)O)c4)c(=O)n31)c1ccccc1CC2 (configuration not stated),"inconclusive: 15.8 µM [activator, single point]",
Cc1cccc2c1-c1sc(C(=O)NCCc3ccc(Cl)cc3)cc1CO2,,inactive: -1.31%
COc1ccc(NC(=O)c2csc3c2CCCC3)cc1,,inactive: 20.1%

SMILES,Potency,growth rescue (activation)
C=CCNc1sc(C(=O)c2ccc(Br)s2)c(N)c1C#N,"inconclusive: 15.8 µM [activator, partial curve, poor fit]",
O=C(Nc1ccc(Cl)c(S(=O)(=O)N2CCOCC2)c1)c1cc(-c2ccccn2)nc2ccccc12,"inconclusive: 50.1 µM [activator, single point]",
Cc1cc(C)c2c(-n3cccc3)c(C(=O)NCCCN3CCCCC3)sc2n1,,inactive: 24.2%
COc1cc(/C=N/NC(=O)CC#N)ccc1Oc1nc(Cl)ncc1F,"inconclusive: 28.2 µM [activator, single point]",
CC(C)C[C@H]1CN(CCCC[C@@H]2CNC(=O)C(=O)N2Cc2ccccc2)C(=O)C(=O)N1CC1CCCCC1,,inactive: 22%
Cc1ccc(C(=O)NC2CC3CCC(C2)N3C)cc1 (configuration not stated),,inactive: -14%
C#CCOCCOCCOCCNc1nc(N2CCN(C(=O)CCCCCCCCCCNC(=O)Cn3cc(C[C@@H](C)O)nn3)CC2)nc(N2CCN(C(=O)CCCCCCCCCCNC(=O)[C@H](CCCCN)n3cc(CCCC(=O)O)nn3)CC2)n1,"inconclusive: 7.94 µM [activator, partial curve, poor fit]",
CC(NC(=O)c1c(F)cccc1Cl)c1ccc(-n2ccnc2)cc1 (configuration not stated),,inactive: -2.59%
CCOc1cc(-c2ccc(N)c(OCC)c2)ccc1N,"inconclusive: 50.1 µM [activator, single point]",
COc1cccc(NC(=O)CSc2nnc(COc3ccc4c(c3)CCCC4)o2)c1,,inactive: 12.6%
COc1ccc(CNC(=O)CCc2nc3cccnc3n2Cc2ccccc2)cc1,"inconclusive: 50.1 µM [activator, single point]",
CCOc1ccc(CCNC(=O)C(C)n2nc(C)n3c(cc4occc43)c2=O)cc1OCC (configuration not stated),,inconclusive: 89.8% [activator]
NS(=O)(=O)c1ccc(CCNc2nn3c(-c4cccc(OC(F)(F)F)c4)cnc3s2)cc1,"inconclusive: 28.2 µM [activator, single point]",
Cc1ccc(-c2nnc(Nc3ccc(Cl)cc3)c3ccccc23)cc1S(=O)(=O)N1CCOCC1,"inconclusive: 50.1 µM [activator, single point]",
Cc1cc2c(cc1C)-c1nnnn1C(N1CCCC1)C(=O)N2 (configuration not stated),,inactive: -7.08%
CCOc1cc(C(=O)N2CCC(CC3CC(c4cccc(Br)c4)=NO3)(C(=O)NCC3CCCCC3)CC2)cc(OCC)c1OCC (configuration not stated),"inconclusive: 12.6 µM [activator, partial curve, poor fit]",
COC(=O)[C@]12C[C@H](CC(=O)NCc3cccc(C(F)(F)F)c3)C(=O)N(Cc3ccc(Cl)cc3Cl)C1=C[C@H](C(C)C)O[C@@H]2C1CC1,"inconclusive: 12.6 µM [activator, partial curve, poor fit]",
COc1ccc(C(=O)/C=C2/C(=O)Nc3ccccc32)cc1,,inactive: 16.9%
COc1nc(-c2ccc3c(c2)OCO3)n(-c2ccc(NC(=O)CSc3ccccc3)cc2)n1,"inconclusive: 22.4 µM [activator, partial curve, poor fit]",
CC1(C)Cc2c(C#N)c(N3CCN(C(=O)c4ccco4)CC3)nc(-c3ccco3)c2CS1,"inconclusive: 20 µM [activator, partial curve, poor fit]",
N#C/C(=C\c1ccc(Sc2nc3ccccc3[nH]2)o1)c1ccccc1,"inconclusive: 7.08 µM [activator, full curve]",

SMILES,Potency,growth rescue (activation)
Cc1ccc(S(=O)(=O)Nc2cccc(C(=O)N3CCN(c4ccccc4O)CC3)c2)cc1F,"inconclusive: 50.1 µM [activator, single point]",
O=C(N/N=C/c1cn[nH]c1-c1ccccc1)c1ccco1,"inconclusive: 25.1 µM [activator, single point]",
CC1(OC(=O)c2cccs2)C(=O)C=C2C=C3CCCN3C=C2C1=O (configuration not stated),"inconclusive: 8.91 µM [activator, partial curve]",
COc1cc(C2C3C(=O)N(Cc4ccccc4)C(=O)C3ON2c2ccccc2)cc(OC)c1O (configuration not stated),"inconclusive: 22.4 µM [activator, partial curve]",
CCCN1CCN(CCCNC(=O)c2ccc3c(c2)sc2nc(-c4ccc(C)cc4)cn23)CC1,,inactive: -4.86%
CN(C(=O)c1ccc2c(c1)N(Cc1ccccc1F)C(=O)c1ccccc1S2)C1CCCCC1,"inconclusive: 20 µM [activator, partial curve, poor fit]",
COc1cccc(CN2C(=O)c3ccccc3Sc3ccc(C(=O)NCCc4ccc(Cl)cc4)cc32)c1,,inactive: 36.3%
COc1ccc(NC(=O)c2ccc3c(c2)c(C)c(C)n3Cc2ccc(F)cc2)c(OC)c1,"inconclusive: 50.1 µM [activator, single point]",
Cc1cc(C(=O)CSc2nc(N)cc(N)n2)c(C)n1CC1CCCO1 (configuration not stated),"inconclusive: 17.8 µM [activator, partial curve]",
Cc1cccc(Nc2ccccc2C(=O)OCC(=O)N(C)C2CCS(=O)(=O)C2)c1C (configuration not stated),"inconclusive: 28.2 µM [activator, single point]",
OCCNc1nc(N2CCCC2)nc(N2CCCC2)n1,"inconclusive: 3.98 µM [activator, full curve]",
O=C(CSc1ncn(-c2ccccc2)n1)Nc1nc2c(s1)CCCC2,"inconclusive: 50.1 µM [activator, single point]",
CCCCOCCCNC(=O)C[C@H]1C[C@@]2(C(=O)OC)C(=C[C@H](C3CCCC3)O[C@@H]2C)N(Cc2ccco2)C1=O,"inconclusive: 28.2 µM [activator, partial curve, poor fit]",
COc1cc(CNCc2cccs2)cc(Br)c1OC,"inconclusive: 35.5 µM [activator, single point]",
O=C(NC(=S)Nc1ccc(N2CCOCC2)cc1)c1ccccc1,,inactive: 12.4%
Nn1c(SCC(=O)NC2CCCCC2)nnc1-c1cc(-c2ccc(F)cc2)n[nH]1,,inactive: 7.97%
COc1ccccc1N(C)S(=O)(=O)c1ccc(C(=O)Nc2ccncc2)cc1,,inactive: -6.63%
O=C(NC(=S)Nc1ccc(N2CCOCC2)c(Cl)c1)c1cncc(Br)c1,,inactive: 12.7%
O=c1c(O)c(-c2cccs2)oc2ccccc12,,inactive: -1.68%
COC(=O)c1ccccc1NC(=O)CSc1c2c(nc3ccc(Cl)cc13)CCCC2,,inactive: 7.08%
